Among the data in publication PMC4326527 are binding values, retold here.

Sequences of proteins named here, by UniProt entry; tags and fusion partners are left off. A change or cut given only in a name is not applied to a line headed by its entry. A line that says so, or that is headed by a name, gives the form on record, which may keep a tag or linker.
USP46 central fragment (165–259) in pNLS(SV40)-GFP (P62068, form named): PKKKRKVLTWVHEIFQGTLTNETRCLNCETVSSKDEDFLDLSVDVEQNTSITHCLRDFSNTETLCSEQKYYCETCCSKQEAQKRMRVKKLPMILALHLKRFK
full length USP46 in pNLS(SV40)-GFP (P62068, form named): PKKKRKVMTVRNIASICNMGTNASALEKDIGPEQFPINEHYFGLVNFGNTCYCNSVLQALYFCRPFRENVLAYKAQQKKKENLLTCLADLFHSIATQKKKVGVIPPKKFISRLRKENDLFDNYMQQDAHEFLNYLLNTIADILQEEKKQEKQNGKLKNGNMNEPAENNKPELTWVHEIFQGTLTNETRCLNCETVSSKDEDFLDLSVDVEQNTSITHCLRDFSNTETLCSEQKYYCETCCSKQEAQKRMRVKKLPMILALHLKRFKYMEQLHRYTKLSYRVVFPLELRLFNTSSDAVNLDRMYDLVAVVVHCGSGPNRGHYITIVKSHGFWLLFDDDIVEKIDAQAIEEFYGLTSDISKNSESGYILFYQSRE
USP46 amino-terminal fragment (1–164) in pNLS(SV40)-GFP (P62068, form named): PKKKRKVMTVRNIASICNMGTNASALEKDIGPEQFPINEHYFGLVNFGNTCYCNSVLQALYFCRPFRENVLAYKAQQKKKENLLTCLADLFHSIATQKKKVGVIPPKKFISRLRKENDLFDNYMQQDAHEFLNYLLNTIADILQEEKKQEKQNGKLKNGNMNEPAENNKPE
USP46 carboxy-terminal fragment (243–366) in pNLS(SV40)-GFP (P62068, form named): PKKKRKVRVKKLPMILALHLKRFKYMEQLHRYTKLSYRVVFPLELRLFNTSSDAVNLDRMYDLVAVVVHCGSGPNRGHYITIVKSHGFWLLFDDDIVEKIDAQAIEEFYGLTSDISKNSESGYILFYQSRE
UniProt Q8TAF3: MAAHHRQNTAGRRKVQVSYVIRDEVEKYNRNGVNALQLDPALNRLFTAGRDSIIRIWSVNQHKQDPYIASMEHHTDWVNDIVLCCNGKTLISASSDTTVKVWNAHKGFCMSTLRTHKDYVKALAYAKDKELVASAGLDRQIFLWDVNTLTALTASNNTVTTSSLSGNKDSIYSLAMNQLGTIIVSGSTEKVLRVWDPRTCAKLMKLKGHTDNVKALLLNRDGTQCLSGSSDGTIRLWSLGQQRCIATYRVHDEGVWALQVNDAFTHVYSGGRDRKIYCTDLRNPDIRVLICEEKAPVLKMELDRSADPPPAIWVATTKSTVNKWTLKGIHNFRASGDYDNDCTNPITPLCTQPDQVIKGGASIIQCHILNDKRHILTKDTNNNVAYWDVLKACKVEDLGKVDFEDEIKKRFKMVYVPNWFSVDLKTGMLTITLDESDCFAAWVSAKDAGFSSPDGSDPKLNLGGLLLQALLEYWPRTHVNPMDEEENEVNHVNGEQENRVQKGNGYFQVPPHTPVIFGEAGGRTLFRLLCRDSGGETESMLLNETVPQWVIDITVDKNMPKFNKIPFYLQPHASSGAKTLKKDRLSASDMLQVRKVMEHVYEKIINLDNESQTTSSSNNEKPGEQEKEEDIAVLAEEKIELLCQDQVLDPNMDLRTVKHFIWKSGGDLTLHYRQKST

Common to all, as to assay: co-IP; lysates of co-transfected 293T cells; GFP- or YFP-fusion proteins precipitated with Magnetic GFP-Trap beads; Xpress-UAF1 detected by anti-Xpress immunoblot
The target of test [1] is T1, GFP-USP1 wild type (human) (UniProt O94782).
T1 sequence: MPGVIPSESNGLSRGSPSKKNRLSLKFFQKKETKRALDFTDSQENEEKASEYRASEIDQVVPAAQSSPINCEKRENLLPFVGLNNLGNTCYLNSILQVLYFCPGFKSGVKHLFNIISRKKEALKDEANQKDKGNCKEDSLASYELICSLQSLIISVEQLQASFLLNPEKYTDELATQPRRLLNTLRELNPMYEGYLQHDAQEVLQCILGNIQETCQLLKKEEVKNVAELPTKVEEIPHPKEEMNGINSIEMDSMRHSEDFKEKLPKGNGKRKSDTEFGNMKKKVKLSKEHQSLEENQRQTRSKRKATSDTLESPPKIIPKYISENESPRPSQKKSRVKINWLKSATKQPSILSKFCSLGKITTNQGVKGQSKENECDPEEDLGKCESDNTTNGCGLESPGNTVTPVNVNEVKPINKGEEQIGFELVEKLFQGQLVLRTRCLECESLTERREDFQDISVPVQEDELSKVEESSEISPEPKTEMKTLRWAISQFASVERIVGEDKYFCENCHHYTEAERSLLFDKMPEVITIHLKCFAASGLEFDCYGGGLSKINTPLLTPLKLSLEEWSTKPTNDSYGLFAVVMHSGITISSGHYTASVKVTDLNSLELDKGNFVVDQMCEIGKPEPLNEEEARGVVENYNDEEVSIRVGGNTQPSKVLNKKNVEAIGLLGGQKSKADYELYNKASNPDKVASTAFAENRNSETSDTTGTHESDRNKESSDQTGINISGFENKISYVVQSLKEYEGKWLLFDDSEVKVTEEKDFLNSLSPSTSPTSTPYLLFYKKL

Test [2] concerns the target USP46 central fragment (165–259) in pNLS(SV40)-GFP (Simian virus 40 | not stated) (UniProt P62068).
For test [3], the target named is full length USP46 in pNLS(SV40)-GFP (Simian virus 40 | not stated) (UniProt P62068).
Test [4] concerns the target USP46 amino-terminal fragment (1–164) in pNLS(SV40)-GFP (Simian virus 40 | not stated) (UniProt P62068).
The next test has as its target T2, GFP-USP1^S313D (human) (UniProt O94782).
T2 sequence: T1 sequence with S313D

The next test addresses T3, GFP-USP1^S313A (human) (UniProt O94782).
T3 sequence: T1 sequence with S313A

The target in test [5] is USP46 carboxy-terminal fragment (243–366) in pNLS(SV40)-GFP (Simian virus 40 | not stated) (UniProt P62068).

Substitutions are numbered along the chain they refer to. These are yes or no findings as the source states them, for the method shown. Binding seen in cells or lysates may run through a third protein. Some entries that bind do so weakly or less than the wild type. For some of these results: Sequences can lack the tags named with a protein.

Regarding Xpress-UAF1 (from UniProt Q8TAF3 1-677), the binding entry is listed as “binds” in test [1]; “binds” in test [2]; “binds” in test [3]; “no binding” in test [4]; “binds” with GFP-USP1^S313D (human); “binds” with GFP-USP1^S313A (human). Also, the binding entry in test [5] was “no binding”.
